Laboratory results from PubChem BioAssay (NCI).
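Each compound was tested at five concentrations against cells in 96-well plates for 48 hours. GI50 marks 50% less growth. The concentration for full growth arrest is given as TGI.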

System: NCI-H322M lung
Test: NCI-60 cell line screen, 48 h

Question: What does the source list for CC(NC(=O)Cc1ccc(C(F)(F)P(=O)(OCc2ccc([N+](=O)[O-])o2)N(C)CCCCCl)cc1)c1ccc(OCC2CCCCC2)c(C(N)=O)c1 (configuration not stated)?
Answer: GI50: 10.8 µM; TGI: 26.7 µM

Question: For COc1cc(/C=N/N=C(\N)NO)cc(OC)c1OC, which TGI is on record?
Answer: Its TGI is over 100 µM.

Question: O=C(O)c1nc2ccc(C(F)(F)F)cc2nc1Nc1ccc(Cl)c(Cl)c1 was tested. Which TGI did it give?
Answer: The TGI was 37.7 µM.

Question: What does the source list for O=C1c2cccnc2-c2nc(-c3cccnc3)cc3c2c1nc1ccccc13?
Answer: GI50: 13 µM; TGI: 35.5 µM

Question: For CCOC(=O)c1ccc(NC(=O)NC2=NCCS2)cc1, which GI50 is on record?
Answer: The GI50 was 7.01 µM.

Question: And the TGI?
Answer: Its TGI is over 100 µM.

Question: With Cc1ccc(O)c(C2=CC3=NNC(=O)C3C(c3cccc(Cl)c3)C2)c1 (configuration not stated) as the compound, how does the TGI read?
Answer: Its TGI is 57.1 µM.

Question: With CCOc1cc(/C=C/C(=O)C(C(=O)/C=C/c2ccc(OC(=O)CNc3nc4ccccc4[nH]3)c(OCC)c2)C(=O)CNc2nc3ccccc3[nH]2)ccc1OC(=O)CNc1nc2ccccc2[nH]1 as the compound, how does the GI50 read?
Answer: Its GI50 is 7.3 µM.

Question: And the TGI?
Answer: The TGI was 20.9 µM.

Question: O=C(N/N=C\c1cccc2ccccc12)Nc1ccccc1 was tested. Which TGI did it give?
Answer: Its TGI is over 100 µM.
